Test results as given in PubChem BioAssay AID485281 (National Center for Advancing Translational Sciences (NCATS), 2010).
In all, about 350,000 compounds went through this assay and about 260 (0.074%) were called active. The inconclusive results got no clear call from the source; some entries with a clear call stand among them for comparison. The call rests on the fitted dose curve; in most records, active means well fitted inhibition curve with a large enough effect; inconclusive means small, poorly fitted or top-dose-only effect; inactive means no such curve, though single readings can be large or run the other way. Where the call is inconclusive, the potency comes from a doubtful curve fit.

Target: Ferritin light chain (Equus caballus) (UniProt P02791)
Sequence of UniProt P02791 (P02791 whole entry, looked up): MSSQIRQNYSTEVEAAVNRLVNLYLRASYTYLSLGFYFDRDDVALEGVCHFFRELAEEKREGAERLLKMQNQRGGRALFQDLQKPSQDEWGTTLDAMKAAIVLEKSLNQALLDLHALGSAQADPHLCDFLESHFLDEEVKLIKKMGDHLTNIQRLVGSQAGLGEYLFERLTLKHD
Test: qHTS Assay for Identification of Novel General Anesthetics; further: nearly all actives have a fitted effect of over 20% in size
Conditions: apoferritin/1-aminoanthracene competitive binding, fluorescence; series mostly up to 77.5 µM
Summary of the method: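 Concentration-response curves derived by four-parameter Hill fitting of normalized fluorescence, where compounds displaced 1-AMA from 10 uM horse apoferritin following a brief 10 min room-temperature incubation; propofol titration acted as positive control.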
Potency means the concentration at half of the fitted maximal effect; tags describe the fitted curve by direction and shape.

Potency, inconclusive:
C=CCn1c(CSc2nc3ccccc3s2)nnc1SCC(=O)NCc1ccccc1 25.1 µM [inhibitor, partial curve, poor fit]
CC1CC1C(=O)OCC(=O)NC(=O)NC12CC3CC(CC(C3)C1)C2 (stereo not given) 31.6 µM [inhibitor, partial curve]
O=c1c([N+](=O)[O-])cccn1Cc1cccc(Cl)c1 25.1 µM [inhibitor, single point]
CCn1nnc(NC(=O)CSc2ccc(Cl)cc2)n1 35.5 µM [inhibitor, single point]
Cc1cc(C)c(CSc2nnc(C)n3c2cc2occc23)c(C)c1 5.01 µM [inhibitor, partial curve]
COc1ccccc1CN=Cc1[nH]c2ccc(Br)c(Cl)c2c1O 31.6 µM [inhibitor, partial curve]
COc1ccc(-n2c(Cc3cccn3C)nnc2SCC(=O)Nc2ccc(C)cc2C)cc1 35.5 µM [inhibitor, single point]
COC(=O)c1ccc(CSc2nnc(NCc3ccccc3)s2)o1 22.4 µM [inhibitor, partial curve]
O=S(=O)(NC1CCCC1)c1ccc(S(=O)(=O)N2CCCN(Cc3ccccc3)C2)cc1 7.94 µM [inhibitor, full curve]
NCCc1nnc(SCc2ccc(F)cc2)o1 25.1 µM [inhibitor, partial curve]
CCn1cnc2sc(C)c(C)c2c1=O 56.2 µM [inhibitor, single point]
O=C(/C=C/c1ccccc1Cl)c1ccc(O)cc1 50.1 µM [inhibitor, single point]
Cc1onc(C(=O)Nc2sc3c(c2C#N)CCCC3)c1[N+](=O)[O-] 22.4 µM [inhibitor, partial curve]
CCn1cc(C(=O)N2CCN(c3cc(C)ccc3C)CC2)c(=O)c2cc(S(=O)(=O)N3CCOCC3)ccc21 39.8 µM [inhibitor, single point]
O=C(Nc1ncnc2c1ncn2C1OC(COC(=O)c2ccccc2)C(F)C1O)c1ccccc1 (stereo not given) 31.6 µM [inhibitor, partial curve]
O=C1c2[nH]nc(-c3ccccc3O)c2C(c2ccc(Cl)cc2)N1Cc1ccco1 (stereo not given) 31.6 µM [inhibitor, partial curve]
CCc1ccccc1N1C(=O)C2CC(C)=C(C)CC2C1=O (stereo not given) 22.4 µM [inhibitor, partial curve]
COc1cccc(OC)c1CNC(=O)CCSCc1ccccc1F 31.6 µM [inhibitor, partial curve]
O=C(COC(=O)C12CC3CC(CC(C3)C1)C2)NC12CC3CC(CC(C3)C1)C2 7.94 µM [inhibitor, full curve]
O=C(c1ccc(C(F)(F)F)cc1)N1CCC(=O)N(C(COCc2ccccc2)Cc2ccccc2)CC1 (stereo not given) 7.08 µM [inhibitor, partial curve]
COc1ccc(/C=C/C(=O)OCC(=O)NCCC2=CCCCC2)cc1 10 µM [inhibitor, partial curve]
CC(C)Oc1cccc(C(=O)NC(=S)Nc2cccc(C(F)(F)F)c2)c1 20 µM [inhibitor, partial curve]
CC(=O)N1c2ccc(S(=O)(=O)N3CCCC3)cc2CC1C(=O)Nc1cc(C)cc(C)c1 (stereo not given) 3.16 µM [inhibitor, full curve, poor fit]
O=C(C/C=N/OCc1c(Cl)cccc1Cl)c1ccc(Cl)cc1 35.5 µM [inhibitor, partial curve]
Nc1ccccc1N=Nc1ccccc1N 25.1 µM [inhibitor, partial curve]
Cc1cccc(NCc2cc(Cl)ccc2O)n1 50.1 µM [inhibitor, single point]
Cc1ccc(C)c(N(CC(=O)NN=C2CCCCCCC2)S(C)(=O)=O)c1 25.1 µM [inhibitor, single point]
CCc1ccc(C(=O)c2cn(CC(=O)NCCc3ccc(OC)c(OC)c3)c3nc(C)ccc3c2=O)cc1 31.6 µM [inhibitor, single point]
CCc1ccc(-n2c(SCc3ccccc3F)nc3[nH]ncc3c2=O)cc1 5.01 µM [inhibitor, full curve, poor fit]
O=C(CNC(=O)c1ccc(S(=O)(=O)N2CCCC2)cc1)N/N=C/c1c(Cl)cccc1Cl 25.1 µM [inhibitor, single point]
N#C/C(=C\c1c(N(Cc2ccccc2)Cc2ccccc2)nc2ccccn2c1=O)C(N)=O 35.5 µM [inhibitor, single point]
COc1ccc(-n2nc(C(=O)NCC(=O)NCCC3=CCCCC3)c3ccccc3c2=O)cc1OC 25.1 µM [inhibitor, single point]
CCc1cccc(NC(=O)c2cccc3c2C(=O)N(CC2CCCO2)C3)c1 (stereo not given) 22.4 µM [inhibitor, partial curve]
Cc1ccccc1OCC(=O)N/N=C/c1cccc2cccnc12 44.7 µM [inhibitor, single point]
C=C(C)Cn1c(=O)c2c(nc3n2CCN3c2ccc(CC)cc2)n(C)c1=O 15.8 µM [inhibitor, partial curve, poor fit]
O=C1C2C3C=CC(C3)C2C(=O)N1c1ccc2ccccc2n1 (stereo not given) 44.7 µM [inhibitor, single point]
CSc1ncc(C(=O)Nc2ccccc2C(=O)c2ccccc2)c(C(F)(F)F)n1 31.6 µM [inhibitor, partial curve, poor fit]
CCOC(=O)c1cccc(NC(=O)c2cc3c(=O)n(Cc4ccccc4)ccc3nc2C)c1 7.94 µM [inhibitor, full curve]
CC(OC(=O)CN1C(=O)NC2(CCCC2)C1=O)C(=O)Nc1cccc(Cl)c1 (stereo not given) 50.1 µM [inhibitor, single point]
Cn1c(N)c(C(=O)COC(=O)/C=C/c2ccc(OC(F)F)cc2)c(=O)n(C)c1=O 39.8 µM [inhibitor, partial curve]
CC1Cc2ccccc2N1C(=O)CSc1nnc2c(n1)[nH]c1ccccc12 (stereo not given) 3.98 µM [inhibitor, full curve]
CCOc1ccc(C(=O)CN2CCN(S(=O)(=O)c3ccc(F)cc3)CC2)cc1 44.7 µM [inhibitor, single point]
CCN1C(=O)c2ccccc2Sc2ccc(NC(C)=O)cc21 25.1 µM [inhibitor, partial curve]
O=C(Nc1cccc(C(F)(F)F)c1)C1CCCCC1 35.5 µM [inhibitor, partial curve]
O=S(=O)(c1ccc(S(=O)(=O)N(Cc2cccs2)CC2CCCO2)cc1)N1CCCCC1 (stereo not given) 14.1 µM [inhibitor, partial curve]
O=C1CC(c2cccc([N+](=O)[O-])c2)c2c(ccc3ccccc23)N1 (stereo not given) 14.1 µM [inhibitor, partial curve]
Cc1[nH]c2ccccc2c1C(=O)C(=O)Nc1ccc2c(c1)OCCO2 25.1 µM [inhibitor, single point]
CCCCCn1c(Sc2nc3ccccc3s2)nc2c1c(=O)[nH]c(=O)n2C 7.94 µM [inhibitor, full curve, poor fit]
CC(=O)c1cccc(NC(=O)C2(c3ccccc3)CC2(Cl)Cl)c1 (stereo not given) 14.1 µM [inhibitor, partial curve]
O=[N+]([O-])c1ccccc1SNc1ccccn1 39.8 µM [inhibitor, single point]
COCCN=c1scc(C)n1/N=C/C1CC2C=CC1C2 (stereo not given) 28.2 µM [inhibitor, single point]
CCOc1cc(C2C(C(=O)OC)=C(C)NC3=C2C(=O)c2ccccc23)cc(Cl)c1O (stereo not given) 28.2 µM [inhibitor, partial curve]

Potency, inactive:
COc1cc(-c2nc3nc[nH]n3c2Nc2ccc(C(C)C)cc2)ccc1O
Cc1ccc(SCc2nc(-c3ccc(C(=O)NCc4ccc(Cl)cc4)cc3)oc2C)cc1
O=C(CSc1nc2ccccc2[nH]1)NCc1ccco1
C=CCn1c(C)c(/C=C/c2cc[n+](C)cc2)c2ccccc21
Cc1ccc(/C=C2\SC(=S)N(CCC(=O)NCCCN3CCOCC3)C2=O)cc1
COc1ccc(Cl)cc1NC(=O)Cn1c(=O)n(Cc2ccco2)c(=O)c2cccnc21
CCn1c(=O)n(CC)c2cc(N3CCCCC3)c(NC(=O)Nc3cc(C)cc(C)c3)cc21
O=C(COC(=O)c1ccc2c(c1)C(=O)N(c1cccc3ncccc13)C2=O)c1ccc(Cl)cc1
Cc1ccc(C(=O)N2CCN(c3ccc(NC(=O)c4ccc5c(c4)OCCO5)cc3)CC2)cc1
Fc1ccc(C2=NN(c3ccccc3)C(c3ccco3)C2)cc1 (stereo not given)
CSc1ccc(/C=N/NC(=O)c2cccs2)cc1
O=c1cc(CN2CCN(c3ccccc3)CC2)nc2scc(-c3ccccc3)n12
Cn1c(SCC(=O)N/N=C/c2cc([N+](=O)[O-])ccc2O)nnc1-c1ccccc1
